Measured values reported in the supplement of paper PMC12217912.
The other results are listed elsewhere or left out. Sequences were assembled here from the parent chain. Values near 0.05 are background.

B1: TEV protease; numbered along this chain (parent)
chain: MGESLFKGPRDYNPISSSICHLTNESDGHTTSLYGIGFGPFIITNKHLFRRNNGTLVVQSLHGVFKVKDTTTLQQHLVDGRDMIIIRMPKDFPPFPQKLKFREPQREERICLVTTNFQTKSMSSMVSDTSCTFPSGDGIFWKHWIQTKDGQCGSPLVSTRDGFIVGIHSASNFTNTNNYFTSVPKNFMELLTNQEAQQWVSGWRLNADSVLWGGHKVFMVKPEEPFQPVKEATQL

Variants of: B1
Experiment: raw area under fraction-flipped curve 0-4 h after induction (AUC4h, not background-subtracted), DNA-recorder readout of cleavage of the substrate (dimensionless); higher = more cleavage of the substrate by the protease variant
Conditions: temperature: 34 °C; time window: 0-4 h after rhamnose induction
Description: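 In vivo DNA recorder in E. coli TOP10(DE3) ΔrhaA at 34 °C. Each TEVp single-site mutant (parent TEVp 0) is paired with a single-site variant of the 7-mer TEVs (canonical ENLYFQ|S). The substrate sits between flexible linkers in a Bxb1-sfGFP-TEVs-SsrA fusion, so cleavage stabilises Bxb1 and speeds flipping of a recombination array, read by NGS. The value is the raw area under the fraction-flipped curve over 0-4 h after rhamnose induction (AUC4h), with ≥20 reads per time point. It is not background-subtracted; inactive controls average about 0.047.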
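Note: Bxb1 expression induced with 0.2% (w/v) L-rhamnose at OD600 near 0.5, cultures sampled hourly, flipped fraction per protease–substrate barcode pair counted by paired-end Illumina sequencing.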

Variant | area with substrate ENLYFQA | area with substrate ENLYFQD | area with substrate ENLYFQE | area with substrate ENLYFQG | area with substrate ENLYFQH | area with substrate ENLYFQI | area with substrate ENLYFQK | area with substrate ENLYFQL | area with substrate ENLYFQM | area with substrate ENLYFQN | area with substrate ENLYFQP | area with substrate ENLYFQR | area with substrate ENLYFQS | area with substrate ENLYFQT | area with substrate ENLYFQW | area with substrate ENLYFQC | area with substrate ENLYFQV | area with substrate ENLYFQY | area with substrate ENLYFQF | area with substrate ENLYFQQ
MGESLFKGPRDYNPISSSICHLTNESDGHTTSLYGIGFGPFIITNKHLFRRNNGTLVVQSLHGVFKVKDTTTLQQHLVDGRDMIIIRMPKDFPPFPQKLKFREPQREERICLVTTNFQTKSMSSMVSDTSCTFPSGDGIFWKHWIQTKDGQCGSPLVSTRDGFIVGIHSASNFTNTNNYFTSVPKNFMELLTNQEAQQWVSPWRLNADSVLWGGHKVFMVKPEEPFQPVKEATQL [G202P] | 0.0624 | 0.0723 | 0.0687 | 0.0625 | 0.0551 | 0.0579 | 0.0472 | 0.0625 | 0.0631 | 0.0501 | 0.0581 | 0.0719 | 0.06 | 0.0581 | 0.039 | – | – | – | – | –
MGESLFKGPRDYNPISSSICHLTNESDGHTTSLYGIGFGPFIITNKHLFRRNNGTLVVQSLHGVFKVKDTTTLQQHLVDGRDMIIIRMPKDFPPFPQKLKFREPQREERICLVTTNFQTKSMRSMVSDTSCTFPSGDGIFWKHWIQTKDGQCGSPLVSTRDGFIVGIHSASNFTNTNNYFTSVPKNFMELLTNQEAQQWVSGWRLNADSVLWGGHKVFMVKPEEPFQPVKEATQL [S123R] | 0.0944 | – | – | 0.1 | – | 0.0391 | – | 0.0656 | – | – | – | 0.0652 | 0.123 | 0.052 | 0.058 | 0.132 | – | – | – | –
MGESLFKGPRDYNPISSSICHLTNESDGHTTSLYGIGFGPFIITNKHLFRRNNGTLVVQSLHGVFKVKDTTTLQQHLVDGRDMIIIRMPKIFPPFPQKLKFREPQREERICLVTTNFQTKSMSSMVSDTSCTFPSGDGIFWKHWIQTKDGQCGSPLVSTRDGFIVGIHSASNFTNTNNYFTSVPKNFMELLTNQEAQQWVSGWRLNADSVLWGGHKVFMVKPEEPFQPVKEATQL [D91I] | 0.0863 | – | – | 0.077 | – | 0.0177 | 0.0593 | 0.0673 | 0.0797 | – | 0.0485 | 0.0584 | 0.0955 | 0.0726 | – | 0.0044 | 0.0539 | 0.0574 | – | –
MGESLFKGPRDYNPISSSICHLTNESDGHTTSLYGIGFGPFIITNKHLFRRNNGTLVVQSLHSVFKVKDTTTLQQHLVDGRDMIIIRMPKDFPPFPQKLKFREPQREERICLVTTNFQTKSMSSMVSDTSCTFPSGDGIFWKHWIQTKDGQCGSPLVSTRDGFIVGIHSASNFTNTNNYFTSVPKNFMELLTNQEAQQWVSGWRLNADSVLWGGHKVFMVKPEEPFQPVKEATQL [G63S] | 0.0986 | 0.0587 | – | 0.0849 | – | 0.0665 | 0.0592 | 0.0593 | – | 0.0669 | 0.0539 | 0.057 | 0.0975 | 0.0591 | 0.0643 | 0.126 | 0.0421 | 0.0736 | 0.0671 | 0.0742
MGESLFKGPRDYNPISSSICHLTNESDGHTTSLYGIGFGPFIITNKHLFRRNNGTLVVQSLHGVFKVKDTTTLQQHLVDGRDMIITRMPKDFPPFPQKLKFREPQREERICLVTTNFQTKSMSSMVSDTSCTFPSGDGIFWKHWIQTKDGQCGSPLVSTRDGFIVGIHSASNFTNTNNYFTSVPKNFMELLTNQEAQQWVSGWRLNADSVLWGGHKVFMVKPEEPFQPVKEATQL [I86T] | 0.0896 | 0.054 | – | 0.0701 | – | 0.0462 | – | 0.0473 | 0.0612 | 0.0639 | – | 0.0604 | 0.0751 | 0.0531 | – | 0.0808 | – | 0.076 | 0.0724 | –
MGESLFKGPRDYNPISSSICHLTNESDGHTTSLYGIGFGPFIITNKHLFRRNNGTLVVQSLHGVFKVKDTTTLQQHLVDGRDMIIIRMPKDFPPFPQKLKFREPQREERICLVTTNFQTKSMSSMVSDTSCTFPSGIGIFWKHWIQTKDGQCGSPLVSTRDGFIVGIHSASNFTNTNNYFTSVPKNFMELLTNQEAQQWVSGWRLNADSVLWGGHKVFMVKPEEPFQPVKEATQL [D137I] | 0.135 | – | – | 0.102 | 0.0793 | 0.0595 | – | 0.0682 | 0.0873 | 0.0643 | – | 0.0519 | 0.102 | 0.0592 | 0.0674 | 0.118 | – | 0.0601 | 0.0759 | 0.0946
MGESLFKGPRDYNPISSSICHLTNESDGHTTSLYGIGFGPFIITNKHLFRRNNGTLVVQSLHGVFKVKKTTTLQQHLVDGRDMIIIRMPKDFPPFPQKLKFREPQREERICLVTTNFQTKSMSSMVSDTSCTFPSGDGIFWKHWIQTKDGQCGSPLVSTRDGFIVGIHSASNFTNTNNYFTSVPKNFMELLTNQEAQQWVSGWRLNADSVLWGGHKVFMVKPEEPFQPVKEATQL [D69K] | 0.0828 | – | 0.0766 | 0.097 | 0.0847 | – | 0.0655 | 0.0587 | 0.0938 | – | 0.0608 | 0.0462 | 0.0914 | – | 0.045 | – | 0.0537 | – | – | –
MGESLFKGPRDYNPISSSICHLTNESDGHTTSLYGIGFGPFIITNKHLFRRNNGTLVVQSLHGVFKVKDTTTLQQHLVDGRDMIIIRMPKDFPPFPQKLKFREPQREERICLVTTNSQTKSMSSMVSDTSCTFPSGDGIFWKHWIQTKDGQCGSPLVSTRDGFIVGIHSASNFTNTNNYFTSVPKNFMELLTNQEAQQWVSGWRLNADSVLWGGHKVFMVKPEEPFQPVKEATQL [F117S] | 0.148 | – | – | – | 0.0855 | 0.0695 | 0.0728 | 0.067 | 0.083 | – | – | 0.0643 | 0.11 | 0.0724 | 0.0754 | 0.147 | 0.0504 | – | – | –
MGESLFKGPRDYNPISSSICHLTNESDGHTTSLYGIGFGPFIITNKHLFRRNNGTLVVQSLHGVFKVKDTTTLQQHLVDGRDMIIIRMPKNFPPFPQKLKFREPQREERICLVTTNFQTKSMSSMVSDTSCTFPSGDGIFWKHWIQTKDGQCGSPLVSTRDGFIVGIHSASNFTNTNNYFTSVPKNFMELLTNQEAQQWVSGWRLNADSVLWGGHKVFMVKPEEPFQPVKEATQL [D91N] | 0.113 | – | – | – | – | – | – | – | – | – | – | – | 0.0973 | – | 0.0625 | – | 0.0645 | – | 0.0886 | 0.0662
